# The campaign covered roughly 340,000 compounds. About 6,900 (2%) were called active. Cut-off read from the data, not from the text of the source: active = inhibition above about 30%; inactive = below that, where a call was filed. This is a selection; strong and weak results do not stand in their true shares. Where no call is shown, the source filed none.
# Molecular target: D(2) dopamine receptor (Homo sapiens) (UniProt P14416)
# Experiment: HTS Assay for Allosteric Antagonists of the Human D2 Dopamine Receptor: Primary Screen for Antagonists; note: 0% is about no effect
# Conditions: HEK293 TREx D2 cells, calcium flux, dopamine EC80; at 10 µM; stronger effect = higher value
# Procedure, shortened: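 Tetracycline-induced HEK293 T-REx cells expressing D2 force-coupled to calcium signalling were dye-loaded, exposed to compound for 180 s, then challenged with an EC80 of dopamine; calcium flux was followed kinetically for a further 180 s.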
# UniProt P14416, sequence (P14416 whole entry, looked up): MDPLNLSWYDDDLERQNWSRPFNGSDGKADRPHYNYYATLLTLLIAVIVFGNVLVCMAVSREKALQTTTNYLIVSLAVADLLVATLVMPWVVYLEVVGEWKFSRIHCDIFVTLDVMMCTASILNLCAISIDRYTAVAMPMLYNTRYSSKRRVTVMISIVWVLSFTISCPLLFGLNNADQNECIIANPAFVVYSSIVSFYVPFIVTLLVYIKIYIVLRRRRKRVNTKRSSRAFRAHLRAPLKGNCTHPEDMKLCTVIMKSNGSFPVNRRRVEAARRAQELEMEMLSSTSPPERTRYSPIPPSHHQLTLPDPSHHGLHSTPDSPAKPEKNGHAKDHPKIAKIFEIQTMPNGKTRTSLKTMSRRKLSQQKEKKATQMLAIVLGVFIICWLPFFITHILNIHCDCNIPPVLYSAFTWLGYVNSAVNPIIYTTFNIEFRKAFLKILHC
row,SMILES,inhibition
1,C/C=C(\C)CN1CCN(c2ccccc2F)CC1,active: 65.4%
2,CC(=O)Nc1nonc1-c1nnc(SCC(=O)Nc2ccccc2)n1-c1ccccc1,-0.7%
3,CCCCOc1ccc(CNC(=O)c2ccc(NC(=O)N3CCCCc4ccccc43)cc2)cc1,-18.1%
4,O=C(CCCn1c(=O)c2cccn2c2ccc(F)cc21)NCc1ccc(Cl)cc1,5.27%
5,CCc1ccc(NC(=O)C(=O)NCC(c2cccnc2)N2CCN(Cc3ccccc3)CC2)cc1 (stereo unspecified),13.5%
6,Cc1ccc(-n2nc(CO)c(C(=O)NC(C)CCCc3ccccc3)n2)cc1C (stereo unspecified),-4.28%
7,CC1CCN(C(=O)CSc2c(C(C)C)cnc3c2c(=O)n(C)c(=O)n3C)CC1,13.3%
8,COC(=O)CC1Oc2ccccc2-n2cc(-c3ccccc3)nc21 (stereo unspecified),-9.5%
9,Cc1ccccc1CSc1nc2cc(C(=O)NC3CCCC3)ccc2c(=O)n1Cc1ccccc1,-16.1%
10,Cc1cc2c(cc1C)NC(CC(=O)Nc1ccccc1)C(=O)N2 (stereo unspecified),-23.2%
11,CCN(Cc1ccccc1)C(=O)Cn1cc(S(=O)(=O)Cc2cccc(Cl)c2)c2ccccc21,-1.87%
12,Cc1ccc(O)c(NC(=O)c2ccc(Br)c(S(=O)(=O)N3CCCCC3)c2)c1,-6.33%
13,Cc1ccc(S(=O)(=O)N(CC(=O)N2CCCCC2)c2cccc(C)c2)cc1,active: 31.8%
14,CCS(=O)(=O)c1ncc(N(Cc2ccccc2)Cc2ccco2)c(C(=O)Nc2ccc(C)c(C)c2)n1,-3.37%
15,CCOc1ccc(NC(=O)c2ccc3c(=O)n4nc(Nc5ccccc5C)sc4nc3c2)cc1,-1.39%
16,CCn1c(NCc2ccc(OC)cc2)nc2ccccc21,8.04%
17,COc1ccc(CCNC(=O)CCCCn2c(=O)c3ccccc3n(Cc3ccccc3C)c2=O)cc1OC,3.76%
18,COc1cc(C(CC(=O)Nc2ccc(F)cc2F)N2Cc3ccccc3C2=O)cc(OC)c1OC (stereo unspecified),2.95%
19,COCCNC(=O)CCc1c(C)nc2c(-c3ccc(F)cc3)c(C)nn2c1C,-8.49%
20,CCC(=O)Nc1ccc(CC)cc1-c1nc2ccccc2n(CC(=O)Nc2cccc(Cl)c2)c1=O,3.9%
21,CCCCCn1cc2c(c1-c1ccc(Br)cc1)c(=O)n(C)c(=O)n2C,-12.6%
22,COc1ccc(OC)c(NC(=O)c2cc3cc(C)ccc3n2C)c1,5.26%
23,CCc1ccccc1NC(=O)Cn1c(=O)n(-c2ccc(C)cc2)c(=O)c2c1c1cc(C)ccc1n2C,-1.82%
24,Cc1nc2ncnn2c(C)c1CCC(=O)N1CCN(c2ccccc2)CC1,-25.5%

row,SMILES,inhibition
1,O=C(Cn1c(=O)oc2cc(Cl)ccc21)Nc1cccc(C(F)(F)F)c1,9.02%
2,COc1cccc(NC(=O)Cn2nnc(-c3nc(-c4ccccc4)no3)c2N)c1,-0.588%
3,COc1ccc(NC(=O)c2ccc3nc(CCc4ccccc4)oc3c2)c(OC)c1,24.4%
4,CCOc1ccc(C(=O)Nc2c(C(=O)c3ccc(OC)cc3)oc3ccccc23)cc1,3.32%
5,O=C(NCCc1ccccc1)c1ccc(Cn2c(SCc3cccc(F)c3)nc3cccnc32)cc1,11.9%
6,N#C/C(=C\c1ccc(O)c(Br)c1)C(=O)NCc1ccccc1,active: 69.4%
7,COc1ccccc1N1CCN(Cc2cccc(OC)c2OC)CC1,active: 71.3%
8,Cc1nn(CC(=O)Nc2ccccc2C(F)(F)F)c(=O)c2cccn12,6.58%
9,CCCCN(CC)CCNC(=O)CN1C(=O)COc2ccc(S(=O)(=O)N3CCCC3)cc21,-11.4%
10,Cc1ccc(CCNC(=O)CCn2nc(-c3ccccc3)ccc2=O)cc1,-3.62%
11,CCCSCCCNC(=O)C1CCCN(c2nn3cc(-c4ccc(OC)cc4)nc3s2)C1 (stereo unspecified),-4.36%
12,Cn1c(=O)c(=O)n(C)c2cc(NC(=O)c3cccc(F)c3)c(Cl)cc21,-18.1%
13,COc1ccc(CCNC(=O)Cn2c(=O)nc(-c3ccccc3)c3ccccc32)cc1OC,1.68%
14,COc1ccc(N(CC(=O)NCc2ccccc2Cl)S(=O)(=O)c2c(C)nn(C)c2C)cc1,-16.1%
15,CCOc1ccc(C(=O)c2cn(CC(=O)Nc3ccc(F)cc3)c3cc4c(cc3c2=O)OCO4)cc1,15.1%
16,CCOc1ccccc1CNC(=O)CCCn1ncn2c(cc3occc32)c1=O,-6.29%
17,CN(C)CCCN(C(=O)c1ccc(Br)s1)c1nc2ccc(F)cc2s1,7.42%
18,Cc1ccc2cccc(NC(=O)COc3cc(C)c(Cl)c(C)c3)c2n1,17.8%
19,Fc1ccc(C(NCCc2ccc(Cl)cc2)c2nnc(-c3ccccc3)o2)c(Cl)c1 (stereo unspecified),20.5%
20,COc1ccccc1CNC(=O)CCn1c(=O)c2ccccc2n(CC(=O)Nc2ccc(C)cc2Cl)c1=O,0.878%
21,Cc1c(NC(=O)Nc2ccc(Br)cc2F)sc2nc3n(c(=O)c12)CCC(C)CC3 (stereo unspecified),4.25%
22,Cc1nn2c(=O)cc(CSc3nc4ccccc4[nH]3)nc2s1,active: 38.8%
23,CCc1cccc(C)c1NC(=O)c1cc(S(=O)(=O)NCc2ccccc2Cl)ccc1F,27.3%
24,CCCn1c2ccccc2c2cnn(CC(=O)N(C)c3ccccc3CC)c(=O)c21,17%

row,SMILES,inhibition
1,Cc1ccc(NS(=O)(=O)c2ccc3[nH]c(=O)oc3c2)c(C)c1,-5.48%
2,O=C(CCC1N=C2c3ccccc3N=C(SCc3ccc(Cl)cc3)N2C1=O)NCCc1ccccc1 (stereo unspecified),2.37%
3,Cn1c(=O)cc(OCCCC(=O)NCCN2CCN(c3ccccc3F)CC2)c2ccccc21,active: 35.6%
4,COc1cc2nc(SCC(=O)Nc3c(C)cc(C)cc3C)n3nc(CCn4c(C)nc5ccccc54)nc3c2cc1OC,-8.52%
5,Cc1ccc(CSc2oc(-c3ccco3)nc2S(=O)(=O)c2ccc(C)cc2)cc1,-4.93%
6,COc1cc(/C=C(\C#N)c2nc3ccccc3[nH]2)cc(Cl)c1OCc1ccccc1Cl,8.6%
7,CCc1ccc(-n2c(=O)c3c(C)c(C)sc3n(CC(=O)NCc3ccc(C)cc3)c2=O)cc1,25.1%
8,CCOC(=O)c1ccc(NC(=O)/C(C#N)=C/c2ccc(OC)cc2)cc1,-7.64%
9,CCCCc1nn2c(=O)cc(COC(=O)c3cccc(NC(=O)CCc4ccccc4)c3)nc2s1,-4.1%
10,CCCN(CCC)C(=O)Cn1c(=O)n(-c2ccccc2)c(=O)c2c3c(sc21)CCCC3,-3.35%
11,N#C/C(=C/c1ccc(Cl)cc1)c1nc(-c2ccc(Br)cc2)cs1,-0.716%
12,C/C(=N\NC(=O)C1(C)CC1(Br)Br)c1cccc(NC(=O)C2CCC2)c1 (stereo unspecified),active: 30.2%
13,O=C(Nc1ccc(OC(F)(F)F)cc1)c1nc2ccccc2nc1N1CCCCC1,5.98%
14,CCn1c2ccccc2c2cc(CN3CCN(Cc4ccccc4Cl)CC3)ccc21,-7.24%
15,CCC(=O)NNc1nc2c(F)cc(F)cc2s1,active: 39.5%
16,COc1cccc(NC(=O)CSc2nc3cc(OC)c(OC)cc3c3nc(-c4ccccc4)nn23)c1,6.63%
17,COc1cc(OC)c(NC2(c3ccccc3)C(=O)c3ccccc3C2=O)cc1Cl,0.913%
18,CCc1ccccc1NC(=O)Nc1ccc2c(c1)N(CC)C(=O)c1ccccc1S2,-6.16%
19,CCOc1ccccc1CNC(=O)c1cc2n(n1)CCCN(Cc1ccc(C)cc1)C2=O,7.76%
20,CCc1cccc(-n2c(C)nc3c(cnn3-c3ccc(C)c(C)c3)c2=O)c1,-10.8%
21,CCOc1ccc(NC(=O)CSc2nc(C)c(C(=O)Nc3ccccc3)c(-c3ccc(Cl)cc3)c2C#N)cc1,6.07%
22,O=C(c1ccc(CSc2nc3ccncc3n2Cc2ccc(F)cc2)cc1)N1CCCCCC1,2.88%
23,COCCCNC(=O)c1cc2c(=O)oc3ccc(C)cc3c2s1,2.27%
24,CCc1nc2ccc(C(=O)N3CCN(c4cccc(C)c4C)CC3)cc2nc1CC,-8.61%

row,SMILES,inhibition
1,Cc1ccc(-c2nc3c4ccccc4[nH]c(=O)n3n2)cc1,0.235%
2,CCOc1ccc(-c2cc(OC(=O)c3ccc(OC)cc3)c3c(C)oc(C)c3c(=O)c2)cc1,1.83%
3,Cc1ccc(S(=O)(=O)N(C)CC(=O)OCC(=O)N2CC(=O)Nc3ccccc32)cc1,active: 36.8%
4,CCOc1ccc(C(=O)N(Cc2sccc2C)C2CCS(=O)(=O)C2)cc1 (stereo unspecified),-10.6%
5,O=C1CC(c2cccc(O)c2)c2c(nc(SCc3ccccc3F)[nH]c2=O)N1 (stereo unspecified),-1.43%
6,O=S(=O)(c1ccc2c(c1)OCO2)N1CCN(c2nnnn2-c2ccccc2)CC1,active: 36.2%
7,C[C@H](NC(=O)OC(C)(C)C)c1nnc(SCc2c(F)cccc2Cl)o1,6.12%
8,O=C(CN1CCOCC1)N1CCN(c2ccc([N+](=O)[O-])cc2)CC1,active: 83.4%
9,CCc1ccc(NC(=O)Cn2nc3c4ccccc4n(Cc4ccccc4)cc-3c2=O)cc1,-5.8%
10,COc1ccc(COc2ccsc2C(=O)Nc2ccc(Cl)cc2)cc1,active: 39.9%
11,Cc1cccc(-n2ccnc2SCC(=O)Nc2ccc(F)cc2F)c1C,-7.47%
12,Cc1ccc(C)c(CNC(=O)c2ccc3c(c2)nc2n3CCCCC2)c1,-22.7%
13,Cc1ccc(C)c(CN2CCC(CNC(=O)Nc3ccc(Br)cc3F)CC2)c1,8.77%
14,COc1cc2c(cc1OC)C(COc1ccc3c(C)cc(=O)oc3c1)N(C(=O)C(C)C)CC2 (stereo unspecified),-8.23%
15,O=C(CSc1nc2nc[nH]c2c(=O)[nH]1)NC1CCCCC1,active: 47.5%
16,CCOC(=O)c1nc(Nc2ccc(C(C)=O)cc2)c2ccccc2n1,-14.8%
17,O=C(Nc1c(C(=O)Nc2ccc(F)cc2)oc2ccccc12)c1cc2ccccc2o1,0.526%
18,COc1ccc(Cn2c(=O)c3cccnc3n(CC(=O)Nc3ccc(C)c(F)c3)c2=O)cc1,3.53%
19,Brc1cccc(-c2nc(-c3ccncc3)no2)c1,active: 40.9%
20,CC(C)NC(=O)/C(C#N)=C\c1ccc(N(C)C)o1,active: 40.3%
21,Cc1ccc(NC(=O)Cn2nc(-c3ccncc3)ccc2=O)cc1Cl,1.29%
22,CCOC(=O)c1ccc2c(c1)N(C(CC)C(=O)Nc1ccccc1OC)C(=O)c1ccccc1S2 (stereo unspecified),11.5%
23,CC(C)CCNC(=O)CSc1nc2ccccc2nc1Cc1ccccc1,-5.17%
24,O=c1oc2cc(O)ccc2cc1-c1nc2c(s1)CCc1ccccc1-2,active: 80.2%
